The list shows a part of the results.

The test has as its system T1, Caupolican (Caup) homeodomain DNA-binding domain.
T1 sequence: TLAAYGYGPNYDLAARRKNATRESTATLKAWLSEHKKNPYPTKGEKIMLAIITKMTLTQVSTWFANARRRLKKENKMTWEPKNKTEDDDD
In words: PBM E-score (8-mer, recovered from the published 9-mer minima) (E-score (dimensionless, -0.5 to 0.5)); Drosophila protein; higher = stronger relative binding preference, active = 0.31 or more. Put shortly:
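Caup's homeodomain DNA-binding domain (residues 214-303) was produced by in vitro transcription and translation and applied at 100 nM to custom-designed protein binding microarrays. Each value is an enrichment score giving relative binding preference for a short DNA word; higher means stronger. Published 9-mer scores were the minimum of their two constituent 8-mer scores, and the 8-mer values were recovered from those minima. A cutoff of 0.31 marks candidate binding sequences.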
For the sequence ACCACAAT, the “PBM E-score” value was inactive: -0.00259. Under GCCGTTCA stands inactive: -0.128; under GAGACCTA, inactive: -0.124. The figure for CCATAGAG is inactive: -0.104; for AGAGTGGA it is inactive: 0.00953; for GCGACGAC it is inactive: -0.115.

For GAACGCGC, the “PBM E-score” value was inactive: -0.11. Under AGGTGAAA stands inactive: 0.0529; under ACTCACAA, inactive: 0.0864; under CACCGATC, inactive: 0.0175.

Turning to CAATGCCC, the “PBM E-score” value was inactive: -0.115. Under CCACTAGC stands inactive: -0.138. The figure for GCGGATCC is inactive: -0.194; for CCACAAGG it is inactive: -0.023; for AATTCATG it is inactive: 0.148. Under GCCCGTAA stands inactive: -0.0409; under AGAGTGCG, inactive: -0.148. In the case of AGATCTAA, the “PBM E-score” value was inactive: 0.0169. Under CGACCGAA stands inactive: -0.149; under AAGGGTAT, inactive: 0.0696. The figure for GAAGTTGA is inactive: -0.00745; for GGAATAGA it is inactive: 0.0847.

As for CAGAGAAG, the “PBM E-score” value was inactive: -0.132. With ATGCCGTG, the “PBM E-score” value was inactive: 0.0172.

AAGCTAGC: the “PBM E-score” value was inactive: -0.0853.

On to CCATAATC, for which the “PBM E-score” value is inactive: 0.0795.

As to AGGCTGAC, the “PBM E-score” value was inactive: -0.054. Under ACTGACAG stands inactive: 0.0804; under CAGGCGTC, inactive: -0.134. Under ATGAACAG stands inactive: 0.22.

For GTGAAAAA, the “PBM E-score” value was inactive: 0.0336.

CCCTTAGG: the “PBM E-score” value was inactive: -0.0863. Under AGCGTTAG stands inactive: -0.0677; under ATGAATAG, inactive: 0.1. For the sequence AGAGGAAC, the “PBM E-score” value was inactive: 0.00858. Under CTCCTCCA stands inactive: -0.0912; under AGGTTTCC, inactive: -0.0219; under AAAGCTGA, inactive: -0.106. As for AGCTTAGC, the “PBM E-score” value was inactive: -0.0158. Under GTTATTTA stands inactive: 0.201. Under ACGAGAGT stands at least 0.0592; under CAATCGAC, inactive: 0.115; under CCTCAAAC, inactive: -0.0812. Under CCACCCCG stands inactive: -0.124; under CCCTCCCC, inactive: -0.196; under AACAATGA, inactive: 0.244. Turning to AATGTCTC, the “PBM E-score” value is inactive: 0.112.

For ATTCTAAG, the “PBM E-score” value was inactive: 0.0807. Under AGGTCCGA stands inactive: -0.0154; under CTAGCTCC, inactive: -0.0844. Under ACTCTTCT stands inactive: 0.00993; under GAAGAGGA, inactive: -0.161; under AGAACGTA, inactive: 0.06. For AATTAGCG, the “PBM E-score” value is inactive: 0.0216. On to AGTAGCCG, for which the “PBM E-score” value is inactive: -0.0355. The figure for ACTTCCAG is inactive: -0.0947; for CCCGCGCC it is inactive: -0.288; for GAACTCGC it is inactive: -0.0598. Regarding TCTCAACA, the “PBM E-score” value is inactive: 0.131. The figure for AGAGTAAT is inactive: 0.147. The figure for TCATTGCA is at least 0.135; for AGGGACAG it is inactive: -0.083; for ACCGCTGG it is inactive: -0.154.

For CAATGCGA, the “PBM E-score” value is inactive: 0.023. The figure for CGCCCAAC is inactive: -0.115; for GTTGAAGA it is inactive: 0.0558; for CCAATGCG it is inactive: -0.169.

For ACCATTTA, the “PBM E-score” value is inactive: 0.119.

Consider CTGCGGTA, for which the “PBM E-score” value was inactive: -0.0174.

With GGGCGTAC, the “PBM E-score” value was inactive: -0.111. Under GAATATTA stands inactive: 0.227; under TTACCTAA, inactive: 0.0932; under ACGCCCCC, inactive: -0.307. The figure for CGCACGTA is inactive: -0.0343; for AAACCGCC it is inactive: -0.0797.

Consider GCTCATCC, for which the “PBM E-score” value is inactive: -0.0507. Under CCCAGCTA stands inactive: -0.155; under TTCACAAA, inactive: 0.0789. The figure for CAGGGATA is inactive: 0.0273; for CAGACGTA it is inactive: 0.0544.

GACCAAGA: the “PBM E-score” value was inactive: -0.0778. In the case of CATTCCCA, the “PBM E-score” value was inactive: -0.01. Under ACCTGGAA stands at least 0.0703.

In the case of ATGCCGCA, the “PBM E-score” value is at least 0.0177. Under GAGATTGA stands inactive: 0.057; under ATATCTGA, inactive: 0.0648; under ACCATAAG, inactive: -0.0172. Under AGACGACA stands inactive: 0.224; under ATGAGCGG, inactive: -0.0809. The figure for GGCTTAAC is inactive: -0.00361; for ACGATTCG it is inactive: 0.0118; for CGTGGAGA it is inactive: -0.17. In the case of GTTGGTAA, the “PBM E-score” value is at least 0.243. Under ACGTCCAA stands inactive: -0.00328; under CGCTGCTA, inactive: -0.0908; under TCCACCGA, at least -0.0285. The figure for AAGGGATG is inactive: 0.0206; for GAGGCAAC it is inactive: -0.133; for AGAGAGTA it is inactive: 0.0533. TCTGGAAA: the “PBM E-score” value was inactive: 0.0233. Under GCTTATAC stands inactive: -0.034; under CCCCTCGA, inactive: -0.226; under CAATGGGC, inactive: -0.0534.

In the case of CCCAGGTA, the “PBM E-score” value was inactive: 0.00868. Turning to AACAGCCC, the “PBM E-score” value was inactive: -0.0208. Under ATCGTACG stands inactive: 0.133. On to AAACGCAC, for which the “PBM E-score” value was inactive: -0.0328. Under GAGAACTC stands inactive: -0.0736. Consider CGCGATAG, for which the “PBM E-score” value is inactive: -0.00178. Consider AGTGCCTC, for which the “PBM E-score” value is inactive: -0.216. Under AGGGTCTC stands inactive: -0.0937; under CTGCATGC, inactive: 0.0327.

The values above are taken from the supplement of paper PMC3724861.
